Measurements: the supplement of paper PMC8728848
About 410 targets per protein were measured; listed, in parts, are those with the strongest signals and a random draw of the rest.

Experiments:
Assay in all cases: glycan array binding signal (z-score within array); higher = stronger binding
Conditions in all cases: glycan notation: IUPAC condensed, linker removed
[1] = tested on: Gal(a1-3)Gal(b1-4)[Fuc(a1-3)]GlcNAc
Outline: (§1)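 The binding signal is a Z-score computed within each array and averaged over linkers. Arrays of the same protein sequence at different concentrations or buffers were also averaged together. Data originate from 3228 arrays in the Consortium for Functional Glycomics database, kept only where the protein sequence was available.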

Gal(a1-4)Gal(b1-4)Glc = tested on: Gal(a1-4)Gal(b1-4)Glc
Outline: as §1

[2] = tested on: Gal(b1-3)GlcNAc(a1-3)Gal(b1-4)GlcNAc
Outline: as §1

Gal(a1-3)GalNAc = tested on: Gal(a1-3)GalNAc
Outline: as §1

[3] = tested on: Gal(b1-3)GlcNAc(b1-2)Man(a1-3)[GlcNAc(b1-4)][Gal(b1-3)GlcNAc(b1-2)Man(a1-6)]Man(b1-4)GlcNAc(b1-4)GlcNAc
Outline: as §1

Gal(a1-3)GlcNAc = tested on: Gal(a1-3)GlcNAc
Outline: as §1

Gal(b1-3)Gal = tested on: Gal(b1-3)Gal
Outline: as §1

[4] = tested on: Gal(a1-4)Gal(b1-3)GlcNAc(b1-2)Man(a1-3)[Gal(a1-4)Gal(b1-3)GlcNAc(b1-2)Man(a1-6)]Man(b1-4)GlcNAc(b1-4)GlcNAc
Outline: as §1

[5] = tested on: Gal(a1-4)Gal(b1-4)GlcNAc(b1-2)Man(a1-3)[Gal(a1-4)Gal(b1-4)GlcNAc(b1-2)Man(a1-6)]Man(b1-4)GlcNAc(b1-4)GlcNAc
Outline: as §1

Gal(a1-4)Gal(b1-4)Gal = tested on: Gal(a1-4)Gal(b1-4)Gal
Outline: as §1

[6] = tested on: Gal(a1-4)Gal(b1-4)GlcNAc(b1-3)Gal(b1-4)Glc
Outline: as §1

Gal(a1-4)Gal(b1-4)GlcNAc = tested on: Gal(a1-4)Gal(b1-4)GlcNAc
Outline: as §1

[7] = tested on: Gal(b1-3)Gal(b1-4)GlcNAc(b1-2)Man(a1-3)[Gal(b1-3)Gal(b1-4)GlcNAc(b1-2)Man(a1-6)]Man(b1-4)GlcNAc(b1-4)GlcNAc
Outline: as §1

[8] = tested on: Gal(b1-3)GlcNAc(b1-2)Man(a1-3)[Gal(b1-3)GlcNAc(b1-2)Man(a1-6)]Man(b1-4)GlcNAc(b1-4)GlcNAc
Outline: as §1

Gal(b1-2)Gal = tested on: Gal(b1-2)Gal
Outline: as §1

Gal(b1-3)Gal(b1-4)GlcNAc = tested on: Gal(b1-3)Gal(b1-4)GlcNAc
Outline: as §1

Gal 3 (Homo sapiens) (chain not printed)
glycan array binding signal (z-score) [1]: -0.321 | glycan array binding signal (z-score) (Gal(a1-4)Gal(b1-4)Glc): -0.195 | glycan array binding signal (z-score) [2]: -0.27

Thrombomodulin Extracellular (Homo sapiens) (chain not printed)
glycan array binding signal (z-score) (Gal(a1-3)GalNAc): -0.999

MBP (Homo sapiens) (chain not printed)
glycan array binding signal (z-score) (Gal(a1-3)GalNAc): -0.249 | glycan array binding signal (z-score) [3]: -0.126

Galectin-8 C-terminal CRD (Homo sapiens) (chain not printed)
glycan array binding signal (z-score) (Gal(a1-3)GlcNAc): -0.339

STIM-3 (Mus musculus) (chain not printed)
glycan array binding signal (z-score) (Gal(a1-3)GlcNAc): 0.928 | glycan array binding signal (z-score) (Gal(b1-3)Gal): 1.82

Meso764 (Homo sapiens) (chain not printed)
glycan array binding signal (z-score) [4]: 0.309 | glycan array binding signal (z-score) [5]: 1.96

L-Ficolin (Homo sapiens) (chain not printed)
glycan array binding signal (z-score) (Gal(a1-4)Gal(b1-4)Gal): -0.721

CLEC-2 (Homo sapiens) (chain not printed)
glycan array binding signal (z-score) [5]: 1.79

NCAM1 (Homo sapiens) (chain not printed)
glycan array binding signal (z-score) [6]: -0.363 | glycan array binding signal (z-score) (Gal(b1-3)Gal): -0.163

M-Ficolin G221F A256V (Homo sapiens) (chain not printed)
glycan array binding signal (z-score) (Gal(a1-4)Gal(b1-4)GlcNAc): -0.333 | glycan array binding signal (z-score) [7]: -0.337 | glycan array binding signal (z-score) [8]: -0.346

M-Ficolin (Homo sapiens) (chain not printed)
glycan array binding signal (z-score) (Gal(a1-4)Gal(b1-4)GlcNAc): -0.055

Siglec-2 (Homo sapiens) (chain not printed)
glycan array binding signal (z-score) (Gal(a1-4)Gal(b1-4)Glc): -0.234

Angiogenin (Homo sapiens) (chain not printed)
glycan array binding signal (z-score) (Gal(b1-2)Gal): 0.722

Gal 8 long (Homo sapiens) (chain not printed)
glycan array binding signal (z-score) (Gal(b1-3)Gal(b1-4)GlcNAc): -0.161

M-Ficolin A256V (Homo sapiens) (chain not printed)
glycan array binding signal (z-score) [8]: -0.163

FGF2 (chain not printed)
glycan array binding signal (z-score) [3]: 0.748
